{"source": "the supplement of paper PMC6206098", "key": {"3LL": {"test_system": "3LL", "assay": "cell viability relative to siNT1 control; higher = less toxic", "conditions": "concentration: 10 nM; 96 h; Mus musculus"}, "M565": {"test_system": "M565", "assay": "cell viability relative to lipid-only control; higher = less toxic", "conditions": "concentration: 10 nM; 96 h; Mus musculus"}, "HeyA8": {"test_system": "HeyA8", "assay": "cell viability relative to lipid-only control; higher = less toxic", "conditions": "concentration: 10 nM; 96 h; Homo sapiens"}, "H460": {"test_system": "H460", "assay": "cell viability relative to lipid-only control; HeyA8 human ovarian and H460 human lung cancer; M565 mouse liver and 3LL mouse lung cancer; siNT1 is a non-toxic control siRNA; higher = less toxic", "conditions": "concentration: 10 nM; 96 h; Homo sapiens"}}, "note": "± gives the uncertainty stated by the source. Shown are siRNA guide strands that differ only in the seed, positions 2 to 7.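 Throughout, for cell viability relative to lipid-only control: reverse lipid transfection in 384-well plates, in triplicate, of duplexes on a non-toxic 19mer backbone with passenger strand 2′-O-methylated at positions 1 and 2, luminescence viability read-out.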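 Throughout, for cell viability relative to siNT1 control: Luminescence-based viability of cells reverse transfected in 384-well plates with lipid-complexed siRNAs built on a non-toxic 19mer backbone whose passenger strand carries 2′-O-methyl groups at positions 1 and 2, triplicates.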", "data": [{"sequence": "UAUAUCAACAUGUAAACCAAA", "values": [{"measurement": "cell viability", "setting": "3LL", "value": "99 ± 20", "unit": "%"}, {"measurement": "cell viability", "setting": "M565", "value": "98.9 ± 7.8", "unit": "%"}, {"measurement": "cell viability", "setting": "HeyA8", "value": "99.7 ± 8.2", "unit": "%"}, {"measurement": "cell viability", "setting": "H460", "value": "69.8 ± 6.8", "unit": "%"}]}, {"sequence": "UGCGAGCACAUGUAAACCAAA", "values": [{"measurement": "cell viability", "setting": "3LL", "value": "89.7 ± 6.4", "unit": "%"}, {"measurement": "cell viability", "setting": "M565", "value": "35.2 ± 5.8", "unit": "%"}, {"measurement": "cell viability", "setting": "HeyA8", "value": "69.5 ± 5.1", "unit": "%"}, {"measurement": "cell viability", "setting": "H460", "value": "74.8 ± 2.2", "unit": "%"}]}, {"sequence": "UCACGGCACAUGUAAACCAAA", "values": [{"measurement": "cell viability", "setting": "3LL", "value": "47.6 ± 9.2", "unit": "%"}, {"measurement": "cell viability", "setting": "M565", "value": "29.9 ± 6.2", "unit": "%"}, {"measurement": "cell viability", "setting": "HeyA8", "value": "23.8 ± 2.5", "unit": "%"}, {"measurement": "cell viability", "setting": "H460", "value": "20 ± 2", "unit": "%"}]}, {"sequence": "UUACGCUACAUGUAAACCAAA", "values": [{"measurement": "cell viability", "setting": "3LL", "value": "41.6 ± 6.7", "unit": "%"}, {"measurement": "cell viability", "setting": "M565", "value": "85.4 ± 20", "unit": "%"}, {"measurement": "cell viability", "setting": "HeyA8", "value": "97.1 ± 3", "unit": "%"}, {"measurement": "cell viability", "setting": "H460", "value": "74.7 ± 7", "unit": "%"}]}, {"sequence": "UGUUGCUACAUGUAAACCAAA", "values": [{"measurement": "cell viability", "setting": "3LL", "value": "28 ± 15", "unit": "%"}, {"measurement": "cell viability", "setting": "M565", "value": "18.9 ± 2.6", "unit": "%"}, {"measurement": "cell viability", "setting": "HeyA8", "value": "14.5 ± 1.2", "unit": "%"}, {"measurement": "cell viability", "setting": "H460", "value": "14.4 ± 2.7", "unit": "%"}]}, {"sequence": "UCCUAAGACAUGUAAACCAAA", "values": [{"measurement": "cell viability", "setting": "3LL", "value": "92.6 ± 13", "unit": "%"}, {"measurement": "cell viability", "setting": "M565", "value": "69.4 ± 7.5", "unit": "%"}, {"measurement": "cell viability", "setting": "HeyA8", "value": "84 ± 5.7", "unit": "%"}, {"measurement": "cell viability", "setting": "H460", "value": "67.8 ± 7.9", "unit": "%"}]}, {"sequence": "UCUAUAAACAUGUAAACCAAA", "values": [{"measurement": "cell viability", "setting": "3LL", "value": "99.4 ± 17", "unit": "%"}, {"measurement": "cell viability", "setting": "M565", "value": "61.2 ± 12", "unit": "%"}, {"measurement": "cell viability", "setting": "HeyA8", "value": "89.2 ± 9.7", "unit": "%"}, {"measurement": "cell viability", "setting": "H460", "value": "64.4 ± 5.9", "unit": "%"}]}, {"sequence": "UUCGCCCACAUGUAAACCAAA", "values": [{"measurement": "cell viability", "setting": "3LL", "value": "75.6 ± 19", "unit": "%"}, {"measurement": "cell viability", "setting": "M565", "value": "91.8 ± 1.2", "unit": "%"}, {"measurement": "cell viability", "setting": "HeyA8", "value": "71.3 ± 3.9", "unit": "%"}, {"measurement": "cell viability", "setting": "H460", "value": "67.6 ± 6.5", "unit": "%"}]}, {"sequence": "UUUUGGGACAUGUAAACCAAA", "values": [{"measurement": "cell viability", "setting": "3LL", "value": "58.2 ± 7.8", "unit": "%"}, {"measurement": "cell viability", "setting": "M565", "value": "48.7 ± 3.8", "unit": "%"}, {"measurement": "cell viability", "setting": "HeyA8", "value": "86.5 ± 6.6", "unit": "%"}, {"measurement": "cell viability", "setting": "H460", "value": "56.6 ± 3.1", "unit": "%"}]}, {"sequence": "UUACUUUACAUGUAAACCAAA", "values": [{"measurement": "cell viability", "setting": "3LL", "value": "91.7 ± 4.9", "unit": "%"}, {"measurement": "cell viability", "setting": "M565", "value": "73.3 ± 14", "unit": "%"}, {"measurement": "cell viability", "setting": "HeyA8", "value": "71.45 ± 0.39", "unit": "%"}, {"measurement": "cell viability", "setting": "H460", "value": "69.9 ± 5.1", "unit": "%"}]}, {"sequence": "UUGCUUUACAUGUAAACCAAA", "values": [{"measurement": "cell viability", "setting": "3LL", "value": "71.3 ± 5.6", "unit": "%"}, {"measurement": "cell viability", "setting": "M565", "value": "108 ± 26", "unit": "%"}, {"measurement": "cell viability", "setting": "HeyA8", "value": "78.8 ± 9.1", "unit": "%"}, {"measurement": "cell viability", "setting": "H460", "value": "83.2 ± 4.4", "unit": "%"}]}, {"sequence": "UCGUUCAACAUGUAAACCAAA", "values": [{"measurement": "cell viability", "setting": "3LL", "value": "95.1 ± 12", "unit": "%"}, {"measurement": "cell viability", "setting": "M565", "value": "32 ± 4.5", "unit": "%"}, {"measurement": "cell viability", "setting": "HeyA8", "value": "61.1 ± 5.5", "unit": "%"}, {"measurement": "cell viability", "setting": "H460", "value": "69.8 ± 11", "unit": "%"}]}, {"sequence": "UGCAAAUACAUGUAAACCAAA", "values": [{"measurement": "cell viability", "setting": "3LL", "value": "74.7 ± 3.9", "unit": "%"}, {"measurement": "cell viability", "setting": "M565", "value": "77.5 ± 8.8", "unit": "%"}, {"measurement": "cell viability", "setting": "HeyA8", "value": "45.6 ± 5.4", "unit": "%"}, {"measurement": "cell viability", "setting": "H460", "value": "60.9 ± 2.5", "unit": "%"}]}, {"sequence": "UCCUAUAACAUGUAAACCAAA", "values": [{"measurement": "cell viability", "setting": "3LL", "value": "96.6 ± 24", "unit": "%"}, {"measurement": "cell viability", "setting": "M565", "value": "80.8 ± 15", "unit": "%"}, {"measurement": "cell viability", "setting": "HeyA8", "value": "94.3 ± 3.1", "unit": "%"}, {"measurement": "cell viability", "setting": "H460", "value": "77.6 ± 13", "unit": "%"}]}, {"sequence": "UUAAUUCACAUGUAAACCAAA", "values": [{"measurement": "cell viability", "setting": "3LL", "value": "57.6 ± 6.1", "unit": "%"}, {"measurement": "cell viability", "setting": "M565", "value": "59.6 ± 12", "unit": "%"}, {"measurement": "cell viability", "setting": "HeyA8", "value": "66.5 ± 5.8", "unit": "%"}, {"measurement": "cell viability", "setting": "H460", "value": "69.3 ± 4", "unit": "%"}]}]}
